Test results published in PubChem BioAssay AID651820 (National Center for Advancing Translational Sciences (NCATS), 2012).
“And” between values parts separate entries of the source, which are not always exact repeats. Identical values can stand only once. The whole screen tested about 340,000 compounds, of which about 12,000 (3.5%) were called active. The inconclusive results got no clear call from the source; some entries with a clear call stand among them for comparison. Calls follow the shape of the dose curve; as a rule, active = well fitted inhibition curve with a large enough effect; inconclusive = small, poorly fitted or top-dose-only effect, or another doubt; inactive = no such curve, though single readings can be large or run the other way. Potencies beside an inconclusive call are fits to weak or partial responses and may not hold up.

assay: qHTS Assay for Inhibitors of Hepatitis C Virus (HCV); details: Huh7.5.1 HCVcc-Cre (HCVcc is cell-culture hepatitis C virus) infection, luciferase reporter, 44 h; activity change, negative = inhibition: at 41.8 µM (top of the series)
Outline: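 Reporter virus HCVcc-Cre (~0.5 moi) infects cells exposed to compound; seeding density 1,000 cells/well with 4 h settling beforehand. Luminescence, 15 sec read, taken 44 h post-infection following a 15 min RT substrate incubation.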
% is scaled to controls: 0 for no effect and ±100 for the full control effect; potency is read from the fitted curve at half-maximal effect; tags tell the direction and shape of the fitted curve.

SMILES | Potency | activity change, negative = inhibition
CCN(CC)c1cc(C)c2cc(NC(=O)c3ccc(Br)o3)ccc2n1 | inconclusive: 1 µM [inhibitor, full curve, poor fit] | 
COc1ccc(NC(=O)Cc2ccsc2)cc1S(=O)(=O)N1CCCCC1 | inconclusive: 31.6 µM [inhibitor, single point] | 
COc1cccc(N2CCN(c3c4c(nc5ncnn35)CCC4)CC2)c1 | inconclusive: 22.4 µM [inhibitor, single point] and inconclusive: 2.82 µM [inhibitor, full curve] | 
COC(=O)c1c(NC(=O)CN2CCC3(O)CCCCC3C2c2cc(OC)ccc2OC)sc(C)c1C (stereo not drawn) | inconclusive: 10 µM [inhibitor, partial curve] | 
C=CCCC(=O)N1C[C@H]2CON(C)[C@H]2C[C@H]1c1cccc(Br)c1 |  | inactive: 0.95% [at 8.37 µM]
CC(C)(C)c1ccccc1OCCCCCNCCO | active: 7.94 µM | 
CCS(=O)(=O)Nc1cc(-c2nc3cccnc3s2)ccc1C | inconclusive: 25.1 µM [inhibitor, partial curve, poor fit] | 
O=C1C2C3C=CC(C3)C2C(=O)N1c1ncc([N+](=O)[O-])s1 (stereo not drawn) |  | inactive: 0.319%
CC(C)Cc1nnc(NC(=O)CCC(=O)N2CCN(c3ccc(Cl)cc3)CC2)s1 | inconclusive: 22.4 µM [inhibitor, single point] | 
CC(=O)C(C)Oc1ccc2c3c(c(=O)oc2c1)CCCCC3 (stereo not drawn) | active: 35.5 µM | 
Cc1ccc(C2=NCCn3c2c2ccccc2[n+]3[O-])cc1 |  | inactive: 11.2%
C[N+](C)(C)CCOC(=O)CBr | inconclusive: 3.16 µM [inhibitor, single point] | 
Cc1cc(Br)ccc1OCC(=O)NC1CCCC1 | inconclusive: 31.6 µM [inhibitor, single point] | 
O=C(CC(=O)c1cccnc1)c1ccccc1 | inconclusive: 31.6 µM [inhibitor, single point] | 
O=C(CCC(=O)N1CCN(S(=O)(=O)c2ccc(Cl)cc2)CC1)Nc1ccc2ccccc2c1 | inconclusive: 25.1 µM [inhibitor, single point] | 
Cn1nc(C(F)(F)F)c(C#N)c1N1CCN(c2ccccc2)CC1 | inconclusive: 7.08 µM [inhibitor, partial curve] | 
O=C(CS(=O)(=O)c1cn(Cc2ccccc2Cl)c2ccccc12)N1CCOCC1 | inactive | 
CO/N=C/c1ccc(Sc2ccc(C)cc2)c([N+](=O)[O-])c1 | inconclusive: 5.62 µM [inhibitor, single point] | 
Cc1c(/C=N/NC(=O)c2ccc(O)cc2)c2ccccn2c1C(=O)c1ccc(F)cc1 | inconclusive: 31.6 µM [inhibitor, single point] | 
O=C(NCCOc1ccccc1)C(c1ccccc1)c1ccccc1 |  | inactive: -7.12%
O=C(NNC(=O)c1cccc2ccccc12)c1ccccc1O | inconclusive: 11.2 µM [inhibitor, single point] | 
CC(=O)Nc1ccc(NC(=O)CSc2nnc(-c3cccs3)n2N)cc1 |  | inactive: 16.5%
CCN(CC)S(=O)(=O)c1cccc(-c2nnc(-c3ccc(C)cc3)o2)c1 | inconclusive: 2 µM [inhibitor, full curve] | 

SMILES | Potency | activity change, negative = inhibition
C[C@H](CO)N1C[C@H](C)[C@@H](CN(C)S(=O)(=O)c2ccc(F)cc2)Oc2ccc(NC(=O)Cc3cn(C)c4ccccc34)cc2C1=O | inconclusive: 3.55 µM [inhibitor, single point] | 
CCCOc1ccc(C(C)=O)cc1CC(C(N)=O)C(N)=O |  | inactive: 19.8%
O=C(Cn1ncc2c(=O)oc3ccccc3c21)NCC1COc2ccccc2O1 (stereo not drawn) |  | inactive: 7.72%
CCCCN1C(C)=CC(=C2C(=O)c3ccccc3C2=O)C=C1C |  | inactive: -23.7%
O=C(COc1ccccc1)NNc1nc2c(F)cccc2s1 |  | inactive: 10.2%
O=C(Nc1ccnn1C1CCN(C(=O)Cc2cccc(Cl)c2)CC1)C1CC1 |  | inactive: 28.5%
Nc1c(C(=O)Nc2ccc(F)cc2)sc(=S)n1-c1ccccc1F | inconclusive: 22.4 µM [inhibitor, partial curve] | 
CN(C(=O)CN(CCO)CC(=O)N(C)C(C)(C)Cc1ccccc1)C(C)(C)Cc1ccccc1 | inconclusive: 20 µM [inhibitor, single point] | 
COc1cc(OC)cc(-c2sc3ccc(OC)cc3c2-c2ccc(O)cc2)c1 | inconclusive: 6.31 µM [inhibitor, full curve] | 
OCCNCc1cc(Br)ccc1OCc1ccccc1Cl | inconclusive: 31.6 µM [inhibitor, single point] | 
CC(C)N(C1=CC(=O)OC12CCCCC2)C(C)C |  | inactive: 14.6%
CCN(CC)c1ccc(S(=O)(=O)N2CCOCC2)cc1NC(=O)CN1CCc2ccccc2C1 | inconclusive: 31.6 µM [inhibitor, single point] | 
COc1ccccc1C1CCN(C(=O)c2ccco2)CC1 |  | inactive: 15.6%
COc1ccc(C(=O)/C=C/Nc2ccc(C)cn2)cc1OC | inconclusive: 31.6 µM [inhibitor, single point] | 
COc1ccccc1C(=O)Nc1ccc(S(=O)(=O)N2CCCCC2c2cccnc2)cc1 (stereo not drawn) | inconclusive: 22.4 µM [inhibitor, single point] | 
CC(C)c1ccccc1OCC(O)CN(CC(O)COc1cccc2ccccc12)C(C)C (stereo not drawn) | inconclusive: 2 µM [inhibitor, full curve] | 
O=C(CSc1nnc(-c2ccco2)c(-c2ccco2)n1)Nc1ccccc1 | inconclusive: 11.2 µM [inhibitor, partial curve] | 
CCCNS(=O)(=O)c1ccc(OCC(=O)N2CCc3ccccc3C2)c(C)c1 | inconclusive: 10 µM [inhibitor, partial curve] | 
O=c1[nH]c(=O)n(Cc2ccccc2)c2nc(-c3ccco3)cc(C(F)(F)F)c12 | inconclusive: 8.91 µM [inhibitor, partial curve, poor fit] | 
Cc1nc2sc(C(c3cccs3)N3CCN(C(=O)c4ccco4)CC3)c(O)n2n1 (stereo not drawn) |  | inactive: 17.2%
CSc1ccc2nnc(-c3cccc(F)c3)n2n1 | inconclusive: 11.2 µM [inhibitor, partial curve] | 
CCOC(=O)c1cc(-c2ccccc2)nn1Cc1cc(CC)no1 | inconclusive: 22.4 µM [inhibitor, single point] | 
O=C(CSCc1ccccc1)Nc1ccccc1C(=O)Nc1ccc(C(=O)O)cc1 | inconclusive: 5.01 µM [inhibitor, single point] | 

SMILES | Potency | activity change, negative = inhibition
O=C(NCc1ccco1)c1cc(S(=O)(=O)N2CCCc3ccccc32)ccc1Cl | inconclusive: 11.2 µM [inhibitor, single point] | 
CNS(=O)(=O)c1cc(-c2nnc(N3CCOCC3)c3ccccc23)ccc1C | inconclusive: 15.8 µM [inhibitor, single point] | 
N#CC1=C(N)Oc2ccc3ccccc3c2C1c1cccnc1 (stereo not drawn) | inconclusive: 10 µM [inhibitor, single point] | 
Cc1ccc(OCc2nnc(SCC(=O)Nc3ccc4c(c3)OCO4)n2C)cc1 | inconclusive: 0.891 µM [inhibitor, full curve] | 
CCOC(=O)C1=C(C)NC(SC)=NC1c1ccc(OC)cc1 (stereo not drawn) |  | inactive: 8.32%
CCc1cc(CNC(=O)C2CCC(=O)N(Cc3cccc(F)c3)C2)on1 (stereo not drawn) |  | inactive: 11.7%
COc1ccc(-c2cc(C(=O)Nc3ccc(F)cc3F)no2)cc1 |  | inactive: -4.97%
COc1ccc(Cc2nnc(SCC(=O)N3CCc4ccccc4C3)o2)cc1 | inconclusive: 31.6 µM [inhibitor, single point] | 
CC1CCN(Cc2c(C(=O)N/N=C/c3cccc(C(F)(F)F)c3)nnn2-c2nonc2N)CC1 | inconclusive: 2 µM [inhibitor, single point] | 
c1c2c(cc3sc(N4CCCCC4)nc13)OCO2 |  | inactive: -12.1%
Cc1c(C(=O)O)sc2nc(C)n(C)c(=O)c12 | inconclusive: 0.501 µM [inhibitor, partial curve, poor fit] | 
Cc1ccc2nc(NC(=O)CN3C(=O)NC4(CCCC4)C3=O)sc2c1 | inconclusive: 31.6 µM [inhibitor, single point] | 
O=C(CCc1ccc(Oc2cc([N+](=O)[O-])cc([N+](=O)[O-])c2)cc1)Nc1cccc(Cl)c1 | inconclusive: 14.1 µM [inhibitor, partial curve] | 
O=C(O)CCc1ccc(S(=O)(=O)Nc2ccc(OCc3ccccc3)cc2)cc1 | inconclusive: 5.01 µM [inhibitor, single point] | 
CC(C)CN1CC(C)C(=O)NC1=S (stereo not drawn) |  | inactive: 12.9%
Fc1ccc2nc(C(F)(F)F)cc(N3CCOCC3)c2c1 | inconclusive: 25.1 µM [inhibitor, single point] | 
CC1(C)O[C@@H]2C[C@H]3[C@@H]4C[C@H](F)C5=CC(=O)C=C[C@]5(C)[C@@]4(F)[C@@H](O)C[C@]3(C)[C@]2(C(=O)CO)O1 | inactive | 
CC1=CC(C)(C)N2C(=O)C3(N=C(N)NC(Nc4ccccc4)=N3)c3cc(C)cc1c32 (stereo not drawn) | inconclusive: 31.6 µM [inhibitor, single point] | 
CC(C)=CCc1c2c(c3occ(-c4ccc(O)c(O)c4)c(=O)c3c1O)C=CC(C)(C)O2 | inconclusive: 31.6 µM [inhibitor, single point] | 
COc1nc(OC)nc(N2CCC(C(=O)NC3CCCCCC3)CC2)n1 | inconclusive: 31.6 µM [inhibitor, single point] | 
O=C(/C=C\c1cn(-c2ccccc2)nc1-c1ccccc1)Nc1nccs1 | inconclusive: 31.6 µM [inhibitor, single point] | 
Cc1ccc(Cn2c(SCc3cccnc3)nc3c2c(=O)n(C)c(=O)n3C)cc1 | inconclusive: 10 µM [inhibitor, partial curve] | 
